# This is one part of the list.
# Experiments:
# Experiment in all cases: glycan array binding signal (z-score within array); higher = stronger binding
# Settings in all cases: glycan notation: IUPAC condensed, linker removed
# Gal(a1-4)Gal(b1-4)GlcNAc = molecular target: Gal(a1-4)Gal(b1-4)GlcNAc
# In short: (§1)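 Negative Z-scores can be read as non-binding. The Z-score is calculated within each array and then averaged across arrays of one protein sequence at different concentrations or buffers and across linkers. Arrays, 3228 in all, were curated from the Consortium for Functional Glycomics database and kept only where the protein sequence was available.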
# [1] = molecular target: Gal(a1-4)Gal(b1-4)GlcNAc(b1-2)Man(a1-3)[Gal(a1-4)Gal(b1-4)GlcNAc(b1-2)Man(a1-6)]Man(b1-4)GlcNAc(b1-4)GlcNAc
# In short: as §1
# [2] = molecular target: Gal(a1-4)Gal(b1-4)GlcNAc(b1-3)Gal(b1-4)Glc
# In short: as §1
# Gal(a1-4)GlcNAc = molecular target: Gal(a1-4)GlcNAc
# In short: as §1
# Gal(a1-6)Glc = molecular target: Gal(a1-6)Glc
# In short: as §1
# Gal(b1-2)Gal = molecular target: Gal(b1-2)Gal
# In short: as §1
# Gal(b1-3)Gal = molecular target: Gal(b1-3)Gal
# In short: as §1
# Gal(b1-3)Gal(b1-4)GlcNAc = molecular target: Gal(b1-3)Gal(b1-4)GlcNAc
# In short: as §1
# [3] = molecular target: Gal(b1-3)Gal(b1-4)GlcNAc(b1-2)Man(a1-3)[Gal(b1-3)Gal(b1-4)GlcNAc(b1-2)Man(a1-6)]Man(b1-4)GlcNAc(b1-4)GlcNAc
# In short: as §1
# Gal(b1-3)GalNAc = molecular target: Gal(b1-3)GalNAc
# In short: as §1
# [4] = molecular target: Gal(b1-3)GalNAc(a1-3)[Fuc(a1-2)]Gal(b1-4)Glc
# In short: as §1
# [5] = molecular target: Gal(b1-3)GalNAc(a1-3)[Fuc(a1-2)]Gal(b1-4)GlcNAc
# In short: as §1
# [6] = molecular target: Gal(b1-3)GalNAc(b1-3)Gal(a1-4)Gal(b1-4)Glc
# In short: as §1
# [7] = molecular target: Gal(b1-3)GalNAc(b1-4)Gal(b1-4)Glc
# In short: as §1
# [8] = molecular target: Gal(b1-3)GalNAc(b1-4)[Neu5Ac(a2-3)]Gal(b1-4)Glc
# In short: as §1
# Gal(b1-3)GlcNAc = molecular target: Gal(b1-3)GlcNAc
# In short: as §1
# [9] = molecular target: Gal(b1-3)GlcNAc(a1-3)Gal(b1-4)GlcNAc
# In short: as §1
# [10] = molecular target: Gal(b1-3)GlcNAc(a1-6)Gal(b1-4)GlcNAc
# In short: as §1
# [11] = molecular target: Gal(b1-3)GlcNAc(b1-2)Man(a1-3)[Gal(b1-3)GlcNAc(b1-2)Man(a1-6)]Man(b1-4)GlcNAc(b1-4)GlcNAc
# In short: as §1
# [12] = molecular target: Gal(b1-3)GlcNAc(b1-2)Man(a1-3)[Gal(b1-3)GlcNAc(b1-2)Man(a1-6)]Man(b1-4)GlcNAc(b1-4)[Fuc(a1-6)]GlcNAc
# In short: as §1
# [13] = molecular target: Gal(b1-3)GlcNAc(b1-2)Man(a1-3)[GlcNAc(b1-4)][Gal(b1-3)GlcNAc(b1-2)Man(a1-6)]Man(b1-4)GlcNAc(b1-4)GlcNAc
# In short: as §1
# [14] = molecular target: Gal(b1-3)GlcNAc(b1-2)[Gal(b1-3)GlcNAc(b1-6)]Man(a1-6)[Gal(b1-3)GlcNAc(b1-2)Man(a1-3)]Man(b1-4)GlcNAc(b1-4)GlcNAc
# In short: as §1
# [15] = molecular target: Gal(b1-3)GlcNAc(b1-3)Gal(b1-3)GlcNAc
# In short: as §1
# [16] = molecular target: Gal(b1-3)GlcNAc(b1-3)Gal(b1-4)Glc
# In short: as §1
# [17] = molecular target: Gal(b1-3)GlcNAc(b1-3)Gal(b1-4)GlcNAc
# In short: as §1
# [18] = molecular target: Gal(b1-3)GlcNAc(b1-3)Gal(b1-4)GlcNAc(b1-6)[Gal(b1-3)GlcNAc(b1-3)]Gal(b1-4)Glc
# In short: as §1
# [19] = molecular target: Gal(b1-3)GlcNAc(b1-3)Gal(b1-4)[Fuc(a1-3)]GlcNAc(b1-6)[Gal(b1-3)GlcNAc(b1-3)]Gal(b1-4)Glc
# In short: as §1
# [20] = molecular target: Gal(b1-3)GlcNAc(b1-3)GalNAc
# In short: as §1
# [21] = molecular target: Gal(b1-3)GlcNAc(b1-6)Gal(b1-4)GlcNAc
# In short: as §1
# [22] = molecular target: Gal(b1-3)GlcNAc(b1-6)GalNAc
# In short: as §1
# Gal(b1-3)GlcNAc6S = molecular target: Gal(b1-3)GlcNAc6S
# In short: as §1
# [23] = molecular target: Gal(b1-3)[Fuc(a1-4)]GlcNAc
# In short: as §1
# [24] = molecular target: Gal(b1-3)[Fuc(a1-4)]GlcNAc(b1-2)Man(a1-3)[Gal(b1-3)[Fuc(a1-4)]GlcNAc(b1-2)Man(a1-6)]Man(b1-4)GlcNAc(b1-4)[Fuc(a1-6)]GlcNAc
# In short: as §1
# [25] = molecular target: Gal(b1-3)[Fuc(a1-4)]GlcNAc(b1-3)Gal(b1-3)[Fuc(a1-4)]GlcNAc
# In short: as §1
# [26] = molecular target: Gal(b1-3)[Fuc(a1-4)]GlcNAc(b1-3)Gal(b1-4)GlcNAc
# In short: as §1
# [27] = molecular target: Gal(b1-3)[Fuc(a1-4)]GlcNAc(b1-3)Gal(b1-4)[Fuc(a1-3)]GlcNAc
# In short: as §1
# [28] = molecular target: Gal(b1-3)[Fuc(a1-4)]GlcNAc(b1-6)GalNAc
# In short: as §1
# [29] = molecular target: Gal(b1-3)[GlcNAc(b1-6)]GalNAc
# In short: as §1
# [30] = molecular target: Gal(b1-3)[Neu5Ac(a2-6)]GalNAc
# In short: as §1
# [31] = molecular target: Gal(b1-3)[Neu5Ac(a2-6)]GlcNAc(b1-6)Gal(b1-4)Glc
# In short: as §1
# [32] = molecular target: Gal(b1-3)[Neu5Ac(b2-6)]GalNAc
# In short: as §1
# Gal(b1-4)Gal = molecular target: Gal(b1-4)Gal
# In short: as §1
# [33] = molecular target: Gal(b1-4)GalNAc(a1-3)[Fuc(a1-2)]Gal(b1-4)GlcNAc
# In short: as §1
# [34] = molecular target: Gal(b1-4)GalNAc(b1-3)[Fuc(a1-2)]Gal(b1-4)GlcNAc
# In short: as §1
# Gal(b1-4)Glc = molecular target: Gal(b1-4)Glc
# In short: as §1
binder,measurement,setting,value
CCL1 (Coprinopsis cinerea) (protein) MDTQAKPPAGRYVIYNRVLSPNGEKLALTYPGYQREALTLTPLHHSANQIWILNNWDATTSSLTPETARNTQVGWGSGNVPIVLPPGNYVWTLASSAGGYIIQDGGKTVYWNAGEAVANTKVSIGGDNGLQARWIFERV,glycan array binding signal (z-score),Gal(a1-4)Gal(b1-4)GlcNAc,-0.149
same,glycan array binding signal (z-score),[1],-0.123
same,glycan array binding signal (z-score),[2],-0.154
same,glycan array binding signal (z-score),Gal(a1-4)GlcNAc,-0.164
same,glycan array binding signal (z-score),Gal(a1-6)Glc,-0.091
same,glycan array binding signal (z-score),Gal(b1-2)Gal,-0.13
same,glycan array binding signal (z-score),Gal(b1-3)Gal,-0.15
same,glycan array binding signal (z-score),Gal(b1-3)Gal(b1-4)GlcNAc,-0.151
same,glycan array binding signal (z-score),[3],-0.132
same,glycan array binding signal (z-score),Gal(b1-3)GalNAc,-0.163
same,glycan array binding signal (z-score),[4],-0.163
same,glycan array binding signal (z-score),[5],-0.15
same,glycan array binding signal (z-score),[6],-0.17
same,glycan array binding signal (z-score),[7],-0.172
same,glycan array binding signal (z-score),[8],-0.158
same,glycan array binding signal (z-score),Gal(b1-3)GlcNAc,-0.15
same,glycan array binding signal (z-score),[9],-0.167
same,glycan array binding signal (z-score),[10],-0.169
same,glycan array binding signal (z-score),[11],-0.119
same,glycan array binding signal (z-score),[12],-0.121
same,glycan array binding signal (z-score),[13],-0.107
same,glycan array binding signal (z-score),[14],-0.145
same,glycan array binding signal (z-score),[15],-0.152
same,glycan array binding signal (z-score),[16],-0.112
same,glycan array binding signal (z-score),[17],-0.156
same,glycan array binding signal (z-score),[18],-0.145
same,glycan array binding signal (z-score),[19],0.276
same,glycan array binding signal (z-score),[20],-0.129
same,glycan array binding signal (z-score),[21],-0.152
same,glycan array binding signal (z-score),[22],-0.141
same,glycan array binding signal (z-score),Gal(b1-3)GlcNAc6S,-0.129
same,glycan array binding signal (z-score),[23],-0.122
same,glycan array binding signal (z-score),[24],-0.111
same,glycan array binding signal (z-score),[25],-0.148
same,glycan array binding signal (z-score),[26],1.34
same,glycan array binding signal (z-score),[27],0.007
same,glycan array binding signal (z-score),[28],-0.063
same,glycan array binding signal (z-score),[29],-0.144
same,glycan array binding signal (z-score),[30],-0.117
same,glycan array binding signal (z-score),[31],-0.154
same,glycan array binding signal (z-score),[32],-0.142
same,glycan array binding signal (z-score),Gal(b1-4)Gal,-0.126
same,glycan array binding signal (z-score),[33],-0.142
same,glycan array binding signal (z-score),[34],-0.16
same,glycan array binding signal (z-score),Gal(b1-4)Glc,-0.163
